Data on 45 compounds can be found in PMC4336329 (PLoS ONE, 2015).

About 2,200 (0.71%) of roughly 310,000 compounds showed an effect of 50% or more. The effect is printed as a negative number. The list shows a part of the results.

Chain of human ether-à-go-go-related gene (hERG) potassium channel (Q12809 whole entry, looked up): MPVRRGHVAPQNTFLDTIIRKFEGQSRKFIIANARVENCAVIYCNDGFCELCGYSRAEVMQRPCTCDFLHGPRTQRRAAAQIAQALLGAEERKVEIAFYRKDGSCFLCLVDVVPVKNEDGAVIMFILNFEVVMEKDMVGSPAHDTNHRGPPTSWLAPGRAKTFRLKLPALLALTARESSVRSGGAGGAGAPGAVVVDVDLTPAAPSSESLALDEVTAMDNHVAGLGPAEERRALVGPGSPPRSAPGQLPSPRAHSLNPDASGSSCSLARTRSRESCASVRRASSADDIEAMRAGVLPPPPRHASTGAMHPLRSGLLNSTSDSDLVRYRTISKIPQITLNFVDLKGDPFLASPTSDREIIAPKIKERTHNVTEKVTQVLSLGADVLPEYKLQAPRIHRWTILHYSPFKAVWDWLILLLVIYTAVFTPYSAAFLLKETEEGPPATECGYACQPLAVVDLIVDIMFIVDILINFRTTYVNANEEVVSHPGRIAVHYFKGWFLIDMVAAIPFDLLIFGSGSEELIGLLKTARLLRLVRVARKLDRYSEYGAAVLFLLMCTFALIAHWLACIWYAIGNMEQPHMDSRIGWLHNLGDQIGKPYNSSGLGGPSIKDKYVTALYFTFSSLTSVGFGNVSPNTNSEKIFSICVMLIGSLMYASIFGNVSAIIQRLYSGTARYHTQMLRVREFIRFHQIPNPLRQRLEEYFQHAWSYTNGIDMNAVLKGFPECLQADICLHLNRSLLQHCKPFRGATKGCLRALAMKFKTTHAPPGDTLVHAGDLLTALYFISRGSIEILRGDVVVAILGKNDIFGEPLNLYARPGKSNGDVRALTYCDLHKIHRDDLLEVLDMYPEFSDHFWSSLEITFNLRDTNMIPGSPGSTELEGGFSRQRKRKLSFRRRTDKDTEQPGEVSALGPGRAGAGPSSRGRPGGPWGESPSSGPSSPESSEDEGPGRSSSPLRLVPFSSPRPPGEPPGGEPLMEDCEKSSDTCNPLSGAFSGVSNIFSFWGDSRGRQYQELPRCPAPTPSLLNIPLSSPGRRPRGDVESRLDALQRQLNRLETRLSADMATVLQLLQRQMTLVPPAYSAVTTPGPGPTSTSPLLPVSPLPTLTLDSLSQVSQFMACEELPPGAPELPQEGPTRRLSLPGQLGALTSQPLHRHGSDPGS

This test addresses human ether-à-go-go-related gene (hERG) potassium channel (human, UniProt Q12809). Kind of test: primary screen, population patch clamp on CHO cells stably expressing hERG.
With `CN1C(=O)CC(NNC(=O)c2ccccc2)C1=O` (stereo not drawn), the “hERG current change (%, negative = inhibition) at 1uM” value is on record as 11.1%. As for `CN(Cc1nc2ccccc2n1C)S(=O)(=O)c1ccc(Cl)cc1`, the “hERG current change (%, negative = inhibition) at 1uM” value came out at 9.67%.

`CCOC(=O)C(NC(C)=O)C(OC(C)=O)c1cccc(N(CCCl)CCCl)c1` (stereo not drawn): the “hERG current change (%, negative = inhibition) at 1uM” value turned out to be 9.46%. Turning to `COc1ccc2c(c1OC)C(=O)OC2N1C(=O)CC[C@H]1C(=O)NCC1CCCO1` (stereo partly drawn), the “hERG current change (%, negative = inhibition) at 1uM” value is recorded as 11.9%.

Take `O=C1OC(c2ccccc2)C2(CCCC2)C(=O)C12CCCC2` (stereo not drawn): the “hERG current change (%, negative = inhibition) at 1uM” value is recorded as -0.322%. As to `CN(C)CCCNC(=O)/C(=N\O)c1ccccc1`, the “hERG current change (%, negative = inhibition) at 1uM” value worked out at 14%. Regarding `O=C(CCCn1c(SCC(=O)Nc2ccccc2C(F)(F)F)nc2ccccc2c1=O)NCC1CCCO1` (stereo not drawn), the “hERG current change (%, negative = inhibition) at 1uM” value turned out to be 8.07%. Turning to `CCn1c(/N=C/c2ccccc2O)nc2ccccc21`, the “hERG current change (%, negative = inhibition) at 1uM” value is listed as 14.7%.

As for `Cc1cc(C(=O)OC2CCOC2=O)c2ccccc2n1` (stereo not drawn), the “hERG current change (%, negative = inhibition) at 1uM” value came out at 9.38%. Regarding `Cc1[nH]nc2c1C(c1cc(Br)cs1)C(C#N)=C(N)O2` (stereo not drawn), the “hERG current change (%, negative = inhibition) at 1uM” value is on record as 17.1%. In the case of `COc1ccccc1CNC(=O)C[n+]1ccccc1.[Cl-]`, the “hERG current change (%, negative = inhibition) at 1uM” value was 7.69%. As for `COC(=O)c1c(C)[nH]c(C(=O)/C=C/c2ccccc2)c1C`, the “hERG current change (%, negative = inhibition) at 1uM” value came to 9.33%. Regarding `COc1ccc2nc(Nc3ccc4c(c3)OCO4)sc2c1`, the “hERG current change (%, negative = inhibition) at 1uM” value is given as -1.69%.

Take `CN1CCN(S(=O)(=O)c2cc(C(F)(F)F)ccc2Cl)CC1.Cl`: the “hERG current change (%, negative = inhibition) at 1uM” value worked out at 11.3%. On to `CC(C)(C)C1CCC2(CC1)NC(CO)(CO)CO2` (stereo not drawn), for which the “hERG current change (%, negative = inhibition) at 1uM” value is 12%.

On to `COc1ccc(NC(=O)NCCCCc2ccccc2)cc1`, for which the “hERG current change (%, negative = inhibition) at 1uM” value is 6.14%. With `COc1ccc(-n2ncc(C(C)NS(=O)(=O)c3ccc(C)s3)c2C)cc1` (stereo not drawn), the “hERG current change (%, negative = inhibition) at 1uM” value came to 7.28%. Consider `COc1ccccc1CNC(=O)COC(=O)COc1ccccc1Cc1ccccc1`, for which the “hERG current change (%, negative = inhibition) at 1uM” value is on record as 6.41%. For the compound `COc1ccc(/C=N/N=C2/NC(=O)C(CC(=O)O)S2)cc1OCc1ccc(Cl)cc1Cl` (stereo not drawn), the “hERG current change (%, negative = inhibition) at 1uM” value stood at 15.3%. Take `CC(CN1CCN(C/C=C/c2ccccc2)CC1)c1ccccc1.O=C(O)C(=O)O` (stereo not drawn): the “hERG current change (%, negative = inhibition) at 1uM” value came out at 6.85%. `Cc1cc2c(cc(C(=O)NCc3cccnc3)n2Cc2ccc(Cl)cc2)o1`: the “hERG current change (%, negative = inhibition) at 1uM” value amounted to 15.2%. With `Oc1ccc(Br)cc1-c1cc(-c2ccccc2)n[nH]1`, the “hERG current change (%, negative = inhibition) at 1uM” value stood at 3.3%. Take `COc1ccc(S(=O)(=O)NCc2ccccc2Cl)cc1OC`: the “hERG current change (%, negative = inhibition) at 1uM” value was 8.41%. Next, `CCc1cccc(CC)c1NC(=S)Nc1cccc(Cl)c1Cl`: 12.7%; `O=C(COc1ccc(F)cc1)N(Cc1cccs1)C1CCS(=O)(=O)C1` (stereo not drawn): -3.69%; `Cc1ccc(-n2c(=O)c(C#N)cc3c(=O)n4cccc(C)c4nc32)cc1`: 9.08%. Take `Cc1ccc(OCC(O)CNCc2ccccc2)cc1C` (stereo not drawn): the “hERG current change (%, negative = inhibition) at 1uM” value was -4.05%. Regarding `COc1ccc(C(=O)Nc2ccccc2C(=O)N2CCOCC2)cc1OC`, the “hERG current change (%, negative = inhibition) at 1uM” value was 21.1%. Take `COC(=O)C1=NNC2(c3ccc(Cl)cc3)C(=O)N(c3ccc(Cl)cc3)C(=O)C12` (stereo not drawn): the “hERG current change (%, negative = inhibition) at 1uM” value worked out at 7.44%. Take `CCOc1ccc(OCCn2ccnc2)cc1`: the “hERG current change (%, negative = inhibition) at 1uM” value is on record as 13.4%. On to `CCCCOc1ccc(C(O)(CCC)CCN2CCOCC2)cc1` (stereo not drawn), for which the “hERG current change (%, negative = inhibition) at 1uM” value is on record as -11%. `C(=N/Nc1nc(-c2ccccc2)cc(-c2ccccc2)n1)/c1cccnc1`: the “hERG current change (%, negative = inhibition) at 1uM” value amounted to 3.94%.

Take `CC1(C)CC(=O)CC(=O)/C1=N\Nc1c(Cl)cc(Cl)cc1Cl`: the “hERG current change (%, negative = inhibition) at 1uM” value was 8.05%. Next, `CC(Cc1ccccc1)NC(=O)C(c1ccc(N)cc1)c1ccc(N)cc1` (stereo not drawn): 13.8%; `Cc1nc(N2CCOCC2)nc(N2CCC(C)CC2)c1[N+](=O)[O-]`: 11.1%; `CCC(CO)Oc1cc(NCc2ccccc2F)c2ncn(C(C)C)c2c1` (stereo not drawn): -0.0644%. `COc1ccc(C(C(=O)NCC2CCCO2)N(C(=O)CNC(=O)c2cccs2)c2ccccc2)cc1OC` (stereo not drawn): the “hERG current change (%, negative = inhibition) at 1uM” value is 13.5%. For the compound `CC(C)c1ccc(NC(=O)CN2C(=O)NC(Cc3c[nH]c4ccccc34)C2=O)cc1` (stereo not drawn), the “hERG current change (%, negative = inhibition) at 1uM” value is 1.92%. Consider `O=C(CCC(=O)c1ccc(F)cc1)NN1C(=O)NC2(CCCCC2)C1=O`, for which the “hERG current change (%, negative = inhibition) at 1uM” value came to 9.28%. Next, `Nc1c(NCCC2=CCCCC2)c(=O)[nH]c(=O)n1Cc1ccccc1`: 2.01%; `COCCCn1c(SCC(=O)N2CCCC(C)C2)nnc1-c1ccco1` (stereo not drawn): -15.2%; `COc1ccc(NC(=O)CN2C(=O)COc3ccc(S(=O)(=O)N4CCOCC4)cc32)cc1`: 10.6%.

Regarding `O=C(NC1CC1)c1ccc2c(c1)S(=O)(=O)c1cc(Cl)ccc1C2=O`, the “hERG current change (%, negative = inhibition) at 1uM” value was 6.63%.

Turning to `COC(=O)C[C@]1(C(=O)OC)CN(C#N)N(c2ccc(Cl)cc2)C12c1ccccc1-c1ccccc12`, the “hERG current change (%, negative = inhibition) at 1uM” value is reported as 3.78%. For `Cc1ccccc1SCC(=O)OCC(=O)Nc1sccc1C(N)=O` the value was 9.21%.
